Assay results reported in the RNAGym collection of RNA variant scans (doi:10.1073/pnas.2313332121).
Variants at the background level are over-represented here.

B1: TPR 5TU (parent)
chain: GGAUCUUCUCGAUCUAACAAAAAAGACAAAUCUGCCACAAAGCUUGAGAGCAUCUUCGGAUGCAGAGGCGGCAGCCUUCGGUGGCGCGAUAGCGCCAACGUUCUCAACUAUGACACGCAAAACGCGUGCUCCGUUGAAUGGAGUUUAUCAUG

Variants of: B1
Test: polymerase ribozyme fitness, log enrichment relative to wild type (log ratio); higher = more active; in vitro selection for triplet polymerase activity
Procedure, shortened: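 Mutant libraries were PCR-built and transcribed for each subunit of a heterodimeric triplet polymerase ribozyme and selected for one round in triplicate at −7 °C, frozen, before gel excision of extended constructs and streptavidin-bead capture. Input and output libraries were Illumina-sequenced, keeping genotypes with ≥10 input reads and ≥1 read per output. Fitness is a logarithmic ratio of genotype to wild-type enrichment, in base 2, using inverse-variance-weighted replicate averages.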

A20U C51U G83A C93G C96U C103A C105A and A21G C32G G50C C95G C96A cannot be ordered by “polymerase ribozyme fitness (log ratio)” value: no more than -4.2 for the first, no more than -4.2 for the second.

Going from A20G G80A U82G C95U to A21C A47C C85G G86U A150G, the “polymerase ribozyme fitness (log ratio)” value falls from -1.15 to no more than -4.2.

A20U G48A G50A C76G C96G U135G and A21C C32U G80C C85U A106U G143C U151A cannot be ordered by “polymerase ribozyme fitness (log ratio)” value: no more than -4.2 for the first, no more than -4.2 for the second.

A21C A24C G50C and A21C A49C G68U A73U A97G cannot be ordered by “polymerase ribozyme fitness (log ratio)” value: no more than -4.2 for the first, no more than -4.2 for the second.

A21U A24C C32G G50C G67A G94A and A20G A22C A24U G34C C35G A91C C105U cannot be ordered by “polymerase ribozyme fitness (log ratio)” value: no more than -4.2 for the first, no more than -4.2 for the second.

A20U A41G G70C C103A and A19U G74C C114U U127G G136A cannot be ordered by “polymerase ribozyme fitness (log ratio)” value: no more than -4.2 for the first, no more than -4.2 for the second.

A20U U61A C72A C75U C93G C99A C131G and A21C U31A U33A C38U G59C G68A cannot be ordered by “polymerase ribozyme fitness (log ratio)” value: no more than -4.2 for the first, no more than -4.2 for the second.

A20U A47C U55A C57U G71A A89G U90G C103A C132A G143C and A21G U33G A37U C85U C95U G141C cannot be ordered by “polymerase ribozyme fitness (log ratio)” value: no more than -4.2 for the first, no more than -4.2 for the second.

First: A20U C54A C96G C108G U109G C118G C132A G143A U148A C149U
Second: A20G A24U C85A C116A
The “polymerase ribozyme fitness (log ratio)” value of the first is lower: no more than -4.2 for the first, -0.238 for the second.

Compared with A20U U31C U109G, A21C G68A U90G G94U C116A is lower in “polymerase ribozyme fitness (log ratio)” value: -0.957 for the first, no more than -4.2 for the second.

A20U A73G C85G G88U and A21C G25U G141A U144C cannot be ordered by “polymerase ribozyme fitness (log ratio)” value: no more than -4.2 for the first, no more than -4.2 for the second.

Compared with A20C C76U C85U C95U C96U, A19U G59A G83U U139G is higher in “polymerase ribozyme fitness (log ratio)” value: -3.03 for the first, -1.28 for the second.

First: A20U C93G A122U C131A U151G
Second: A21G G81U C95A C96A A98U U145A
The “polymerase ribozyme fitness (log ratio)” value of the first is lower: no more than -4.2 for the first, -1.34 for the second.

A20U A37U C43U U53G A107G G143U and A21G C79A C93A G126A cannot be ordered by “polymerase ribozyme fitness (log ratio)” value: no more than -4.2 for the first, no more than -4.2 for the second.

A21U A29U C85U G141C and A21C A23U A37C A52U U53G C96A G152U cannot be ordered by “polymerase ribozyme fitness (log ratio)” value: no more than -4.2 for the first, no more than -4.2 for the second.

Compared with A21C G62C, A20C G80C A91C G100U U144C is lower in “polymerase ribozyme fitness (log ratio)” value: -0.587 for the first, no more than -4.2 for the second.

Going from A20C A22U C51U to A20U G58A A60C U77A G84A, the “polymerase ribozyme fitness (log ratio)” value falls from -0.386 to no more than -4.2.

First: A20G C36A U55A A120U A121U C123U C125G G143A
Second: A19U U55A G59U
The “polymerase ribozyme fitness (log ratio)” value of the first is lower: no more than -4.2 for the first, 0.528 for the second.

Going from A21U A26C G141A to A20U A29U U55A A66C A106U A138U, the “polymerase ribozyme fitness (log ratio)” value falls from -3.34 to no more than -4.2.

First: A20G C51U
Second: A20G C32U C38U A73G G86A A137U
The “polymerase ribozyme fitness (log ratio)” value of the first is higher: -0.842 for the first, no more than -4.2 for the second.

A21U A37C C54U C57U C95G C105U C114A and A20U A107U A122U cannot be ordered by “polymerase ribozyme fitness (log ratio)” value: no more than -4.2 for the first, no more than -4.2 for the second.

A20C U77A C85G G92C A120G A121C A150G and A20U G42C C75A C105U C116U A120G G128A U146A cannot be ordered by “polymerase ribozyme fitness (log ratio)” value: no more than -4.2 for the first, no more than -4.2 for the second.

A21G U61A A73G G88C U135A and A20C C35A C95U A120C C125A U148G cannot be ordered by “polymerase ribozyme fitness (log ratio)” value: no more than -4.2 for the first, no more than -4.2 for the second.

Going from A21G C27G U33C G58C C96U A97U A106G G141U to A21U A22G A60G C132G U144C, the “polymerase ribozyme fitness (log ratio)” value rises from no more than -4.2 to -4.13.

A21C C38U U44G G124U and A19U U55G C63G G68U C69U C99A A138C cannot be ordered by “polymerase ribozyme fitness (log ratio)” value: no more than -4.2 for the first, no more than -4.2 for the second.

Compared with A20G A24G A40C A49C C85A, A19U U31G U144C is higher in “polymerase ribozyme fitness (log ratio)” value: no more than -4.2 for the first, -1.49 for the second.

A20G A64C G67A C93U G94C U145G and A20U G86U A115C C118U A120G A137G U148A cannot be ordered by “polymerase ribozyme fitness (log ratio)” value: no more than -4.2 for the first, no more than -4.2 for the second.

Going from A21C A60G to A20G G25A U53A A66G C87A C116A, the “polymerase ribozyme fitness (log ratio)” value falls from 0.714 to no more than -4.2.

Compared with A20G A73G C85A, A20U G59A G68U U82G G83C C93G A120G is lower in “polymerase ribozyme fitness (log ratio)” value: -2.05 for the first, no more than -4.2 for the second.

A20C G34C U55A A66G C96U A122C C132U and A20C U104G A107C U145G cannot be ordered by “polymerase ribozyme fitness (log ratio)” value: no more than -4.2 for the first, no more than -4.2 for the second.

Compared with A19U G86A, A20U A52G G58A C76G G81A G86A A122C is lower in “polymerase ribozyme fitness (log ratio)” value: -2.04 for the first, no more than -4.2 for the second.

Compared with A20C C75U U82C C87U U101G C105U U146G, A21C A37U C76U C87U is higher in “polymerase ribozyme fitness (log ratio)” value: no more than -4.2 for the first, -1.62 for the second.

Going from A20C C85A A107U to A19U G58A C105G, the “polymerase ribozyme fitness (log ratio)” value rises from no more than -4.2 to -2.43.

A21C A47U C76A C93G G140A and A20U A29G G48C A49C G117A U134G A137C U139A cannot be ordered by “polymerase ribozyme fitness (log ratio)” value: no more than -4.2 for the first, no more than -4.2 for the second.

Compared with A21G A30G A89C, A20C G59A G81C G86C is higher in “polymerase ribozyme fitness (log ratio)” value: no more than -4.2 for the first, -3.14 for the second.

A20G U61A G112A U127A A137U and A21U A26C A52G U90A cannot be ordered by “polymerase ribozyme fitness (log ratio)” value: no more than -4.2 for the first, no more than -4.2 for the second.

A20G G83C U90C G136U and A21G G84A C87U U109G U139G U144C cannot be ordered by “polymerase ribozyme fitness (log ratio)” value: no more than -4.2 for the first, no more than -4.2 for the second.

First: A20G A40C C72U G92A
Second: A21G U53A A60U C96U C99G A110G
The “polymerase ribozyme fitness (log ratio)” value of the first is higher: -4.04 for the first, no more than -4.2 for the second.

A21C U56C A91U C96U C103G A110U G143A and A20C A26U C54A U82A C95G C96A C103G C114A U134G G136A cannot be ordered by “polymerase ribozyme fitness (log ratio)” value: no more than -4.2 for the first, no more than -4.2 for the second.

A20G U53A U78G G84U C99U and A20U U53G U55A U78A C93U A142C U148C cannot be ordered by “polymerase ribozyme fitness (log ratio)” value: no more than -4.2 for the first, no more than -4.2 for the second.

First: A20G U45A C57U C116A
Second: A20C U56G G92U
The “polymerase ribozyme fitness (log ratio)” value of the first is lower: no more than -4.2 for the first, -0.962 for the second.

In the case of A19U G58A G94U C116A A119C, the “polymerase ribozyme fitness (log ratio)” value is reported as -0.758.
